Reference: PMC4336329 (PLoS ONE, 2015)
About 14,000 (4.5%) of roughly 310,000 compounds showed an effect of 50% or more. The effect is printed as a negative number. The list shows a part of the results.

Each compound was assayed against human ether-à-go-go-related gene (hERG) potassium channel (human, UniProt Q12809) (assay: primary screen, population patch clamp on CHO cells stably expressing hERG).
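Note: peak tail current of the secondary pulse compared with the same well before compound.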

Chain of human ether-à-go-go-related gene (hERG) potassium channel (Q12809 whole entry, looked up): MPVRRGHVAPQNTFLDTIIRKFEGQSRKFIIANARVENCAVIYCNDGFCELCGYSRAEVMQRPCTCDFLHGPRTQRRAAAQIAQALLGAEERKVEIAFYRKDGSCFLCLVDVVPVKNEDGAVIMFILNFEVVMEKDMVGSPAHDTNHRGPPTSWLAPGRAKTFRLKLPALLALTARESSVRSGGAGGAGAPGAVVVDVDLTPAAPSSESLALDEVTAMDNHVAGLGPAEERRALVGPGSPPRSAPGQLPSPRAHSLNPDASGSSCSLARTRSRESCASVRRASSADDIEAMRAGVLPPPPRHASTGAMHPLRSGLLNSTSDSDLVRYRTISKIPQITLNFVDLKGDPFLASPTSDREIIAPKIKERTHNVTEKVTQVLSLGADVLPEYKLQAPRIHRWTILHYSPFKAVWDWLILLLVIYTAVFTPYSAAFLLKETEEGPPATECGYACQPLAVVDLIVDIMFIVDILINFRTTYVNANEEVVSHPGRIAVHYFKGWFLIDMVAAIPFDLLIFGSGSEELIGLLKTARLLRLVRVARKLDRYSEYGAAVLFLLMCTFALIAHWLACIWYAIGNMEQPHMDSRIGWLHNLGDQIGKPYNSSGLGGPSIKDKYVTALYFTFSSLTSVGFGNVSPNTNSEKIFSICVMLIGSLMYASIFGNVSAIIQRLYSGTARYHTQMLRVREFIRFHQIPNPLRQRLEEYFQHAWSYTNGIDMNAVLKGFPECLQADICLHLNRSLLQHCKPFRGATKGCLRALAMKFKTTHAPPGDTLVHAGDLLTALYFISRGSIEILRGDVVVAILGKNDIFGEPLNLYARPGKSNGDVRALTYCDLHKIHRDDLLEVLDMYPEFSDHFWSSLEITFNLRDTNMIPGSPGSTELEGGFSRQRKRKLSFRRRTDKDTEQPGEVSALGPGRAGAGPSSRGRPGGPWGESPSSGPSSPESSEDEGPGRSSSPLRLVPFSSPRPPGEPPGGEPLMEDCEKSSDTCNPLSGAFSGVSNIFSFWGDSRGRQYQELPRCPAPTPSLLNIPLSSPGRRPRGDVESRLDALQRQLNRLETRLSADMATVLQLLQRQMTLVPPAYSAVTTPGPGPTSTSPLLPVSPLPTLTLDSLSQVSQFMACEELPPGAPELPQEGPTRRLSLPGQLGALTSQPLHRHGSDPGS

| Structure (SMILES) | hERG current change (%, negative = inhibition) at 10uM |
| --- | --- |
| C/C=C\C=C/C(=O)Nc1cccc(C2=NOC3(C2)C[C@H](C(N)=O)N(C(=O)Cc2ccc([N+](=O)[O-])cc2)C3)c1 (stereo partly drawn) | -1.31% |
| Cc1cccc(CSCCNC(=O)CN2C(=O)c3ccccc3S2(=O)=O)c1 | 16.2% |
| CCCc1nc2nc(C)c(NS(=O)(=O)c3ccc(CC(C)C)cc3)c(=O)n2[nH]1 | 7.02% |
| CCCN(C(=O)c1c(-c2ccccc2)noc1C)c1c(N)n(Cc2ccccc2)c(=O)[nH]c1=O | 1.43% |
| CCOC(=O)C1CCN(C(=S)Nc2ccc(S(N)(=O)=O)cc2)CC1 | -3.4% |
| Cc1cc(-c2ccccc2)n(-c2ccc(C(=O)N3CCN(c4ncccn4)CC3)cc2)n1 | -56.4% |
| CCOC(=O)C1(Cc2cccc(F)c2)CCN(C(=O)c2ccoc2C)CC1 | 2.63% |
| O=C(Nc1nnc(SCc2c(Cl)cccc2Cl)s1)C1CC(=O)N(c2ccc3c(c2)OCCO3)C1 (stereo not drawn) | 11.3% |
| O=C(c1ccco1)N1CCN(C(=O)c2nn3cccnc3c2Cl)CC1 | 18.4% |
| Cc1onc(-c2ccccc2Cl)c1C(=O)Nc1ccc(S(=O)(=O)NCC2CCCO2)cc1 (stereo not drawn) | -10.5% |
| Cc1csc(-c2cnn(-c3ccccc3)c2NC(=O)c2ccc(C(F)(F)F)cc2)n1 | -15.6% |
| O=C(CSC1=NCCS1)N1CCCC1 | 15.1% |
| O=C(CNC(=O)[C@@H]1Cc2ccccc2CN1)NC1CCCC1 | 7.67% |
| c1ccc(CN2CN=C(Nc3nc4ccccc4s3)NC2)cc1 | -1.27% |
| COc1ccc(C2(O)CCN(Cc3nnnn3Cc3ccc(C)cc3)CC2)cc1 | -21.4% |
| COc1ccc(CNC(=O)CN(C(=O)CCC(=O)Nc2ccccn2)c2cccc(C)c2)cc1 | 9.3% |
| N#Cc1c(NCCCO)nc(-c2ccco2)c2c1CCCC2 | -9.6% |
| CC(C)[C@@H]1NC(=O)c2cc([N+](=O)[O-])cc(I)c2OCC[C@@H](C(N)=O)NC(=O)[C@H](CCC(=O)O)NC1=O | 2.02% |
| O=C(Nn1cnnc1)c1ccc(OC(F)(F)C(F)C(F)(F)F)cc1 (stereo not drawn) | 21.3% |
| COc1ccccc1N(CC(=O)NC1CCCC1)C(=O)C1(C)CC(=O)N=C2C=CC(C)=CN21 (stereo not drawn) | 12.5% |
| CCOC(=O)C1CCN(S(=O)(=O)c2cc(Br)cc3c2N(C(C)=O)C(C)C3)CC1 (stereo not drawn) | -29.1% |
| O=C(NCC1OCCc2ccccc21)c1cc(COc2ccc(F)cc2Cl)on1 (stereo not drawn) | 13.9% |
| CCS(=O)(=O)c1nc(S(=O)(=O)c2ccc(Cl)cc2)c(N2CCOCC2)s1 | 16.7% |
| Cc1cccc(C)c1NC(=O)C(c1ccc(Cl)cc1Cl)N1CCCCC1 (stereo not drawn) | -4.37% |
| CCOC(=O)c1c(NC(=O)c2cc(C)oc2C)sc(C(=O)Nc2ccc(Cl)cc2)c1C | 21.9% |
| COc1ccc(CNC(=O)Cn2cc([N+](=O)[O-])nc2C)cc1 | 16.8% |
| COc1ccc(-c2ccc(SCC(=O)N3CCCC3)nn2)cc1OC | -5.82% |

| Structure (SMILES) | hERG current change (%, negative = inhibition) at 10uM |
| --- | --- |
| CC(C)CNC(=O)COC(=O)c1cc(S(=O)(=O)N2CCCCC2)ccc1N1CCOCC1 | -28.3% |
| Cc1cc(C)c(C)c(S(=O)(=O)N2CCN(C(=O)C3CSC4(C)CCC(=O)N34)CC2)c1C (stereo not drawn) | -3.21% |
| Cc1c(C(=O)N2CCC(C(N)=O)CC2)sc(N)c1C#N | 2.54% |
| CC(C)c1ccc(NC(=O)CSc2nnc(-c3ccccn3)n2C)cc1 | -32.4% |
| O=C(CCc1nc2ccccc2[nH]1)NC1CCCCC1 | 11.8% |
| Cc1ccc(CCN2CC(C(=O)NC(C)C)CC2=O)cc1 (stereo not drawn) | 12% |
| O=C(c1ccc(F)cc1)N1CCN(Cc2ccccc2Br)CC1 | -9.87% |
| O=C(Nc1ccccc1N1CCCC1)c1cccc(Cl)c1Cl | 15.7% |
| COc1ccc(C2(CNC(=O)C(=O)Nc3ccc(C)cc3)CCOCC2)cc1 | 11.2% |
| CCCC(=O)Nc1ccc(C(=O)N/N=C/c2ccc[nH]2)cc1 | 11% |
| CC(=O)N1CC2(C)CN(C(C)=O)CC(C)(C1)C2 | 23.8% |
| COc1ccc(NC(=O)CCN2CCN(S(=O)(=O)c3ccc(Cl)cc3)CC2)cc1 | -27.1% |
| COc1cc(N2CCCC2)c(OC)cc1C=O | 11.7% |
| CCOC(=O)CN1C(=O)C(Sc2n[nH]c(-c3ccc(C)cc3)n2)CCc2ccccc21 (stereo not drawn) | -1.56% |
| CC(C)(C)OC(=O)[C@H](Cc1ccccc1)NC(=O)c1nc[nH]c1C(=O)N1CCN(c2ccccc2)CC1 | -2.89% |
| O=C(NCc1cccnc1)c1cc(C(=O)C2CC2)c[nH]1 | 15.2% |
| COc1ccc(S(=O)(=O)N(C)C)cc1NCC(=O)Nc1ccc(Br)cc1F | -14.6% |
| CCc1cc(C)c(O)c(CC)n1 | -4.65% |
| O=C1Nc2cc(Cl)c(Cl)cc2N(O)N1c1ccc(Cl)c(Cl)c1 | -2.91% |
| CC(=O)N1CCN(S(=O)(=O)c2cccc(C(=O)Nc3ccc4c(c3)CCC4)c2)CC1 | -36.6% |
| COc1ccccc1N(CC(=O)N(C)Cc1ccccc1)S(=O)(=O)c1cccs1 | -20.5% |
| O=C(OCc1cnc(Cl)s1)c1ccc(Cl)cc1 | -7.8% |
| Cc1[nH]n(-c2ccccc2)c(=O)c1N=Nc1cccc([N+](=O)[O-])c1 | 0.628% |
| Cc1ccc2nc(SCc3cccc([N+](=O)[O-])c3)nc(C)c2c1 | 1.55% |
| CSCCC(NC(N)=O)C(=O)NCc1cccc(Cl)c1 (stereo not drawn) | 9.05% |
| Clc1cccc(CN2COc3c(cc(Cl)c4cccnc34)C2)c1 | 11.9% |
| O=C(CSc1ccccn1)Nc1nonc1[N+](=O)[O-] | -5.26% |
